# Paper PMC4336329 (PLoS ONE, 2015)
# Screen size: about 310,000 compounds; about 2,200 (0.71%) showed an effect of 50% or more. Effects have a minus sign here. Some of the results follow.
# Target: human ether-à-go-go-related gene (hERG) potassium channel (human, UniProt Q12809)
# Assay: primary screen, population patch clamp on CHO cells stably expressing hERG
# human ether-à-go-go-related gene (hERG) potassium channel, sequence (Q12809 whole entry, looked up): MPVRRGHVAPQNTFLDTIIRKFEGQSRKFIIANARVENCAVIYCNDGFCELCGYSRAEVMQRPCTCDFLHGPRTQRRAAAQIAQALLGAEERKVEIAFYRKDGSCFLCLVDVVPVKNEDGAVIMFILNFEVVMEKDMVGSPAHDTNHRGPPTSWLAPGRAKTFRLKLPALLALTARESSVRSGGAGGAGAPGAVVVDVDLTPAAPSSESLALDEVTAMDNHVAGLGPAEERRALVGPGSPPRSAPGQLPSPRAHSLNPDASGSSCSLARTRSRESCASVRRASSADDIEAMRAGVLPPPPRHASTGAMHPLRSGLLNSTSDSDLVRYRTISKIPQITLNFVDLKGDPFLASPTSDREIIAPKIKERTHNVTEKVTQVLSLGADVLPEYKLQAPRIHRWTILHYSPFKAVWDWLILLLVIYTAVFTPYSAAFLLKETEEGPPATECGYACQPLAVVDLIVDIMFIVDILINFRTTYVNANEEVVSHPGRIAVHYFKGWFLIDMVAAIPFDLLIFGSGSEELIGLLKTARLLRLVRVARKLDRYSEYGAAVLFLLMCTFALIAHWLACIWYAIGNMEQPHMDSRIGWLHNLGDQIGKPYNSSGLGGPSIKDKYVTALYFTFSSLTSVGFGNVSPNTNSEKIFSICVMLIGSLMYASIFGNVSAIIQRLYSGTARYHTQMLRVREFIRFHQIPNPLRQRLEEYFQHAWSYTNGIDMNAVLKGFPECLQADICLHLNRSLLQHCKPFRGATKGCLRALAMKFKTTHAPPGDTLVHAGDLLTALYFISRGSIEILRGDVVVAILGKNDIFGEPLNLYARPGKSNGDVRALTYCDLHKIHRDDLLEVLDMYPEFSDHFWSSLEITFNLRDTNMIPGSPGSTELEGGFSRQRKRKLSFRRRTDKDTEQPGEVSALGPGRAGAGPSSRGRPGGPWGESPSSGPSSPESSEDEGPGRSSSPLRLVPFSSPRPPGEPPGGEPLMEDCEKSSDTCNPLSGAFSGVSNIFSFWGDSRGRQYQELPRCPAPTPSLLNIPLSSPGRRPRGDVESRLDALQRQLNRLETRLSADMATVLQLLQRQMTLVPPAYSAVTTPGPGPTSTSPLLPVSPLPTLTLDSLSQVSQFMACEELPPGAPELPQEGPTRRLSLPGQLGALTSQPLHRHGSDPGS
row,SMILES,"hERG current change (%, negative = inhibition) at 1uM"
1,CC(=O)c1c(O)cc(C)n(-c2ccc(F)cc2)c1=O,5.99%
2,COCCNC(=O)CSc1ccc(C)cc1,6.9%
3,O=C(N/N=C/c1ccc(-c2cccc([N+](=O)[O-])c2)o1)c1cccs1,22.4%
4,Fc1ccccc1CN1CCN(c2ccc(Cl)cc2)CC1,15.8%
5,COc1ccc(COC(=O)c2nc3nc(C)cc(C)n3n2)cc1F,3.88%
6,CCc1ccc(NC(=O)CSc2nc3ccsc3c(=O)n2CCCCCC(=O)O)cc1,10.1%
7,O=C(O)c1ccc2c(=O)n3c(nc2c1)/C(=C/c1ccc(OC(F)F)cc1OC(F)F)CC3,17.9%
8,Cc1cccc(C(=O)N[C@H](C(=O)Nc2nc3ccccc3[nH]2)C(C)C)c1,7.53%
9,O=C(Cc1ccc(Cl)cc1Cl)OCC(=O)N1CCCCC1,12.3%
10,CCC(Nc1nc(-c2ccccc2)nc2ccccc12)C(=O)O.Cl (stereo not shown),6.68%
11,CCOC(=O)C(C)Oc1cccc2c(=O)n(CC(=O)NCc3ccco3)ccc12 (stereo not shown),6.61%
12,CCCCC(=O)N/N=C/c1ccc(-c2ccc([N+](=O)[O-])cc2)o1,1.18%
13,COc1cc(Cl)c(S(=O)(=O)NCc2cccnc2)cc1Cl,9.21%
14,CCOC(=O)C1=C(C)NC(=S)N(C(C)=O)C1c1ccccc1 (stereo not shown),6.9%
15,Cc1ccc2c(c1C)OC(=O)CC2c1ccccc1 (stereo not shown),7.89%
16,CCc1cc(-c2n[nH]c(=S)n2N)n(C)n1,-6.77%
17,CCN(CC)CCn1c(=S)[nH]c2cc(C(=O)NCc3ccccc3Cl)ccc2c1=O,-42.5%
18,CC1=CN2C(=N)/C(=C/c3ccco3)C(=O)N=C2S1,15.8%
19,Cc1cccc(N2CCN(c3nnc(C(F)(F)F)s3)CC2)c1,17.4%
20,Nc1cnnc(N/N=C\c2ccccc2)c1Cl,11.6%
21,CCOCCCNCC(=O)N1CCN(S(=O)(=O)c2ccc(C)cc2)CC1.O=C(O)C(=O)O,-0.248%
22,O=C(c1ccc(COc2ccccc2Br)o1)N1CCCCCC1,-4.24%
23,C/C(=N\NC(=O)c1nnn(-c2nonc2N)c1C)c1ccc(-c2ccccc2)cc1,14.5%

row,SMILES,"hERG current change (%, negative = inhibition) at 1uM"
1,O=C(Nc1ccccc1Cl)c1cnccn1,7.92%
2,O=C(Cc1ccc([N+](=O)[O-])cc1)Nc1nccs1,9.57%
3,Cc1c(CCC(=O)N2CCC(C(=O)O)(c3ccccc3)CC2)c(=O)oc2cc3oc4c(c3cc12)CCCC4,11.3%
4,O=C(O)CC1S/C(=N/N=C/C=C/c2ccccc2)NC1=O (stereo not shown),5.99%
5,Cc1cc(C(=O)c2ccc(Cl)cc2)c(NC(=O)CCl)s1,-0.352%
6,CCN(CCO)C(=O)CC1C(=O)NCCN1Cc1c(F)cccc1Cl (stereo not shown),20.9%
7,CC(C)(C)c1ccc(-n2ncc3c2CCCC3NC(=O)CN2CCOC2=O)cc1 (stereo not shown),8.05%
8,CCCn1nnnc1NCc1ccccc1OCc1ccc(F)cc1,3.81%
9,O=C([O-])c1cc(=O)[nH]c2ccc(S(=O)(=O)Nc3ccc(F)cc3)cc12.[K+],17%
10,CC(=O)Nc1ccc(N/C=C(\C=O)c2nc3ccccc3o2)cc1,17.8%
11,CSCc1cc(N2CCOCC2)nc(SCc2ccc(Cl)cc2Cl)n1,4.35%
12,COC(=O)c1ccccc1OCCCCN1CC(C)OC(C)C1.O=C(O)C(=O)O (stereo not shown),5.46%
13,CC(C)Cc1nn2c(N)c(/C=C3\C=Nc4ccccc43)c(=O)nc2s1,12.7%
14,CCCCNC(=O)c1cccc2c(=O)c(C)c(-c3ccccc3)oc12,-1.37%
15,CC(C(=O)Nc1cccc([N+](=O)[O-])c1)N1CCN(C/C=C/c2ccccc2)CC1 (stereo not shown),-74.2%
16,COc1ccccc1-c1oc2ccccc2c1-c1ccc2c(c1)OCO2,14.2%
17,Cc1ccc(NC(=O)Nc2cc(S(=O)(=O)N(C)C)ccc2C)cc1,8.45%
18,COc1ccc2c(COC(=O)CCS(=O)(=O)c3ccc(C)cc3)cc(=O)oc2c1,2.59%
19,O=C(/C=C/c1cccc(Br)c1)N1CCN(c2ccccn2)CC1,8.4%
20,Cc1nc(C)c(-c2csc(N)n2)s1,4.33%
21,O=C(CN1CCN(C(=O)CNC(=O)c2ccc(N3CCCC3=O)cc2)CC1)Nc1ccccc1Cl,12.4%
22,COc1ccc(-c2nc3c(-c4ccc(F)cc4)cnn3cc2C)cc1F,6.61%
23,O=C(O)CSc1nccn1-c1cccc(Cl)c1,7.78%

row,SMILES,"hERG current change (%, negative = inhibition) at 1uM"
1,CCC(=O)N1CCCN(S(=O)(=O)c2ccc(C)cc2)C1c1ccc(OC)cc1 (stereo not shown),0.143%
2,O=C(Nc1ccccc1)/C(=C\c1ccc(F)cc1)NC(=O)c1ccco1,10.2%
3,O=C(OCc1ccccn1)c1ccc(COc2ccccc2Cl)o1,13.6%
4,CC(C)NC(=O)COC(=O)/C=C/c1ccc(F)cc1,0.898%
5,COc1ccccc1NC(=O)CSc1nnc(Cn2nnc(-c3ccccc3)n2)n1-c1ccccc1,5.19%
6,Cn1c(SCC(=O)Nc2ccccc2Oc2ccccc2)nnc1C1CC1,3.28%
7,Cc1nnsc1C(=O)N1CCCC(C(=O)c2ccc(C(F)(F)F)cc2)C1 (stereo not shown),3.88%
8,O=C(COc1ccc(Cl)cc1Cl)NCCSc1ccc(Cl)cc1,9.14%
9,CCCN(CCC)CCOc1cc(C)ccc1C(C)C.O=C(O)C(=O)O,5.42%
10,O=C(CSc1nnc(-c2ccccn2)n1Cc1ccccc1)NC1CCCC1,13.7%
11,CCOC(=O)c1c(C)[nH]c(C(=O)OCC(=O)Nc2ccc(Cl)cn2)c1C,11%
12,CC(C)(C)c1ccc(C(=O)Nc2ccc(NC(=O)C(=O)O)cc2)o1,8.09%
13,CCCCC(CC)CNC(=O)C1CC=CCC1C(=O)O (stereo not shown),15.9%
14,COc1ccc(C(=O)N2CCCC(Nc3ccc(C)c(C)c3)C2)cc1F (stereo not shown),10.6%
15,Cc1ccc(C2c3c(oc4ccccc4c3=O)C(=O)N2c2nncs2)cc1 (stereo not shown),9.76%
16,COc1ccc(NS(=O)(=O)c2cc(NC(=O)C3CCCO3)ccc2N2CCCC2)cc1 (stereo not shown),32.8%
17,COc1ccccc1N1CCN(C(=O)c2cc(C)oc2C)CC1,12.7%
18,COc1ccc(OC)c(N2C(=O)CC(=O)NC2=O)c1,14.8%
19,CN(C)S(=O)(=O)c1ccc(C(=O)N2CCN=C2SCc2cccnc2)cc1,9.96%
20,CN(CC(=O)NCc1ccccc1F)S(=O)(=O)c1ccc(Cl)cc1,7.71%
21,CC(=O)N1CCc2c(sc3c2c(=O)n(Cc2ccccc2)c(=O)n3CC(=O)NCC2CCCO2)C1 (stereo not shown),3.5%
22,COc1cc(/C=N/N=C2/NC(=O)C(c3ccccc3)S2)ccc1O (stereo not shown),11.8%
23,COc1ccc(CCC(=O)OCC(=O)c2cccc(OC)c2)cc1,1.8%

row,SMILES,"hERG current change (%, negative = inhibition) at 1uM"
1,CCn1cnc2c1c(=O)n(CC(=O)O)c(=O)n2Cc1ccccc1,17.9%
2,CC1=C(C(=O)Nc2ccccc2C)C(c2ccc(C)o2)N2C(=O)CSC2=N1 (stereo not shown),-10.9%
3,Cc1ccccc1-c1nn[nH]n1,7.4%
4,CC1CCN(S(=O)(=O)N2CCC(C(=O)NC3CCCC3)CC2)CC1,7.39%
5,S=C(NCCc1ccccn1)Nc1cc(Cl)cc(Cl)c1,6.26%
6,CCOc1ccccc1NC(=O)C1CCCN(S(=O)(=O)c2cccc3nsnc23)C1 (stereo not shown),3.98%
7,Cc1ccc(NC(=O)c2c(C(F)(F)F)nn(C)c2Cl)cc1C,12.8%
8,Cc1[nH]c2ccc(C(=O)OC(C)C(=O)NC3(C#N)CCCCC3)cc2c1C (stereo not shown),13.7%
9,COc1ccc(NC(=S)SC)cc1OC,3.26%
10,O=C(Nc1ccccc1C(=O)Nc1cccnc1)c1ccccc1,10.1%
11,O=C(Nc1cccc2ccccc12)OCc1cncs1,11.5%
12,COC(=O)c1sc(S(=O)(=O)NCCC(=O)O)c(C(=O)OC)c1C,10.7%
13,N#Cc1ccc(Oc2nc(C#N)cc(-c3ccccc3)n2)cc1,-0.666%
14,CCCCOC(=O)Nc1cc(OC)c(Cl)cc1OC,1.4%
15,CCOc1nc(Nc2ccc(Cl)cc2)nc(OCC)n1,12.1%
16,O=C(CNC(=O)Cc1ccccc1)NCc1cccs1,9.79%
17,COc1ccc(C2=Nc3ccc(Br)cc3C(c3ccccc3)N2CC(=O)NN)cc1 (stereo not shown),-1.87%
18,CC(C)C(C)NC(=O)CN1C(=O)NC2(CCc3ccccc3C2)C1=O (stereo not shown),17.7%
19,CN(c1ccccc1)c1nc(N)c([N+](=O)[O-])c(Nc2ccccc2F)n1,22.4%
20,Cc1ccc(CSc2nc(N)cc(=O)[nH]2)cc1,12.9%
21,O=C(Nc1ccc(Nc2ccccc2)cc1)c1cccc(F)c1,15.5%
22,N#C/C(=C(\O)c1cc(Cl)sc1Cl)c1nc2ccccc2[nH]1,11.6%
